From PubChem BioAssay AID1476 (National Center for Advancing Translational Sciences (NCATS), 2009)
The whole screen tested about 200,000 compounds, of which about 4,500 (2.2%) were called active. Inconclusive results, whose numbers are uncertain, are shown with a selection of clear calls. The call rests on the fitted dose curve; in most records, active means well fitted inhibition curve with a large enough effect; inconclusive means small, poorly fitted or top-dose-only effect, or effect the other way; inactive means flat fitted curve, though single readings scatter. Potencies of inconclusive entries are doubtful fits and often do not repeat.

Target: Cruzipain (Trypanosoma cruzi) (UniProt P25779)
Assay: qHTS Assay for Promiscuous and Specific Inhibitors of Cruzain (without detergent); further: nearly all actives have a fitted effect of over 40% in size;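 on max response, negative = inhibition: plate controls were enzyme without inhibitor for no effect and buffer without enzyme for full effect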
Details: purified cruzain, Z-FR-AMC fluorescence, no detergent
How it was run: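 Purified cruzain at 1.5 nM, pre-incubated 15 min with compound at room temperature in 100 mM sodium acetate pH 5.5, 5 mM DTT, 0.00005% Triton X-100. Reaction started with 2 uM Z-FR-AMC; AMC fluorescence increase over 60 s gives rate.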
Potency means the concentration at half of the fitted maximal effect; tags describe the fitted curve by direction and shape.

Chain of UniProt P25779 (P25779 whole entry, looked up): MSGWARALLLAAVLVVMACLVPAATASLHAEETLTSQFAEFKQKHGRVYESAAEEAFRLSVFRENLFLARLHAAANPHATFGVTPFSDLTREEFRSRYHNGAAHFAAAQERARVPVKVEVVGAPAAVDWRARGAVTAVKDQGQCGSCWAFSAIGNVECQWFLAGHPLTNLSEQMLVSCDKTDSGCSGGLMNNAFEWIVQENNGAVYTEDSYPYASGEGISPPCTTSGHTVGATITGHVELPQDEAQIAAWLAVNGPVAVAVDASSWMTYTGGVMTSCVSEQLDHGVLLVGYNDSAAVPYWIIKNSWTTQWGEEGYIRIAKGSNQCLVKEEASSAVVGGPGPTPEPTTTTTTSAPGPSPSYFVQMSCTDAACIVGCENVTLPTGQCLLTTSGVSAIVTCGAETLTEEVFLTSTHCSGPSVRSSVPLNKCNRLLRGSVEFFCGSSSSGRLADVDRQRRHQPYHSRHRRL

Structure (SMILES) | Potency | max response, negative = inhibition
COC(=O)CCC(=O)NC(=S)Nc1sc(C)c(C)c1C(N)=O | inconclusive: 31.6 µM [inhibitor, single point] | –
CC1(C)C2CCC1(C)C(OCC[N+](C)(C)CC(=O)OC1CCCCC1)C2 (configuration not stated) | – | inactive: 7.51%
CN(C)c1cccc(C(=O)OC(C(=O)Nc2ccc(Cl)cc2C(F)(F)F)c2ccccc2)c1 (configuration not stated) | inconclusive: 25.1 µM [inhibitor, partial curve, poor fit] | –
COc1ccc(-c2nnc(NC(=O)C3=COCCO3)o2)cc1 | inconclusive: 0.199 µM [activator, single point] | –
O=C(Nc1ccccc1C(=O)OCc1cc(=O)n2c3c(sc2n1)CCCC3)c1ccc(F)cc1 | – | inactive: 10.1%
COc1cc2nc(CN(CCC(C)C)Cc3nc4cc(OC)c(OC)cc4c(=O)[nH]3)[nH]c(=O)c2cc1OC | inconclusive: 31.6 µM [activator, single point] | –
COc1ccccc1N1CCN(C(=O)c2cc(CC(C)C)on2)CC1 | – | inactive: 12.7%
COc1cccc(N/C(SCc2ccccc2F)=C(/C#N)C(=O)NCc2cccs2)c1 | inconclusive: 39.8 µM [inhibitor, single point] | –
Cc1ccc(Cn2cccc(-c3nc4ccccc4s3)c2=O)cc1 | inconclusive: 10 µM [activator, partial curve] | –
OCCNc1nc(Nc2ccccc2)nc2ccccc12 | active: 15.8 µM | –
CC1(C)C(=O)C=C[C@@]2(C)C1C=C[C@@]1(C)C2CC[C@@]2(C)C(c3ccoc3)OC(=O)C3OC312 (some centres not stated) | – | inactive: -10.8%
Clc1ccccc1-c1nnc2sc(-c3ccc4c(c3)OCO4)nn12 | inconclusive: 15.8 µM [inhibitor, partial curve, poor fit] | –
Cc1c(C(=O)N2CCOCC2)oc2c1-c1nn(CC(=O)NCc3cccc(F)c3)cc1CC2 | inconclusive: 20 µM [activator, single point] | –
CCOc1ccccc1CNC(=O)CCc1c(C)nn(-c2ccc(N3CCCC3)nn2)c1C | – | inactive: -8.55%
CC(C)c1ccc(/C=C/C(=O)NC(=S)Nc2ccc(CN3CCOCC3)cc2)cc1 | inconclusive: 39.8 µM [inhibitor, single point] | –
Cc1ccc(-n2c(=S)[nH]c3nc4c(cc3c2=O)COC(C)(C)C4)cc1 | inconclusive: 39.8 µM [inhibitor, single point] | –
Clc1cccc(Cl)c1NC1=NCCN1 | inconclusive: 39.8 µM [inhibitor, single point] | –
COc1ccc(-c2cc(-c3ccccc3)nc(SCC(=O)Nc3ccccc3F)c2C#N)cc1 | – | inactive: -6.43%
COc1cccc(NC(=O)CSc2nc(-c3ccccc3Cl)nc3c2Cc2c(CO)cnc(C)c2O3)c1 | – | inactive: -3.27%
CCOc1ccc(-n2c(SCC(N)=O)nc3c(oc4ccccc43)c2=O)cc1 | – | inactive: 6.96%
C=CCc1cccc(/C=N/NC(=O)CNc2ccccc2)c1O | inconclusive: 39.8 µM [inhibitor, single point] | –
COc1cccc([C@@H]2Oc3ccc(Br)cc3C(=O)[C@H]2OC(=O)NCCOc2ccccc2)c1 | – | inactive: -4.34%
CN(C)S(=O)(=O)c1ccc2c(c1)/C(=C/c1cc3c([nH]1)CCCC3)C(=O)N2 | inconclusive: 7.94 µM [inhibitor, single point] | –

Structure (SMILES) | Potency | max response, negative = inhibition
CCC1CCCCN1C(=S)NCc1ccccc1 (configuration not stated) | – | inactive: 9.42%
NC(N)=Nc1ccc(-c2ccc(N=C(N)N)cc2)cc1 | – | inactive: -2.03%
Cc1ccc(C(=O)NCC(c2ccc3c(c2)OCO3)N2CCOCC2)cc1 (configuration not stated) | – | inactive: -12.3%
O=C(Cn1c(COc2ccccc2)nc2ccccc21)Nc1cccc(Cl)c1 | inconclusive: 39.8 µM [inhibitor, single point] | –
COC(=O)c1cc(C)nc2c1c(=O)nc(SCc1ccccc1C)n2C1CC1 | – | inactive: -9.51%
COC(=O)C1CCN(S(=O)(=O)c2ccc(N3CCCCS3(=O)=O)cc2)CC1 | inconclusive: 31.6 µM [activator, single point] | –
Cc1ccc(S(=O)(=O)Nc2cc3c(cc2N2CCOCC2)n(C)c(=O)n3C)cc1 | inconclusive: 39.8 µM [activator, single point] | –
CCOC(=O)c1nn(-c2ccc(Br)cc2)cc1C(=O)c1cccc2ccccc12 | inconclusive: 39.8 µM [inhibitor, single point] | –
COC(=O)c1sccc1NC(=O)c1cc(-c2ccc(C)cc2C)nc2ccccc12 | inconclusive: 31.6 µM [inhibitor, partial curve, poor fit] | –
Cn1c(SCc2nc(-c3ccc(Br)cc3)no2)nnc1-c1ccco1 | inconclusive: 0.0631 µM [inhibitor, full curve] | –
Cc1cc(C)c(C2C3=C(Nc4c2c(C)nn4-c2ccccn2)c2ccccc2C3=O)c(C)c1 (configuration not stated) | active: 12.6 µM | –
O=C(O)C(F)(F)C(F)(F)C(F)(F)C(F)(F)C(=O)O | – | inactive: -1.94%
COCCN(CCOC)S(=O)(=O)c1ccc(C(=O)Nc2nc3c(s2)CCc2ccccc2-3)cc1 | – | inactive: -1.58%
Cc1cc(Cl)ccc1OCC(=O)N1CCC(c2nc3ccccc3s2)CC1 | inconclusive: 12.6 µM [activator, partial curve] | –
Cc1ccc2cccc(NC(=O)C(C)Oc3ccc(Cl)cc3Cl)c2n1 (configuration not stated) | – | inactive: 2.25%
CCOc1ccc(C(c2c(O)cc(C)n(Cc3ccco3)c2=O)N2CCCCC2)cc1 (configuration not stated) | inconclusive: 31.6 µM [inhibitor, single point] | –
COc1ccc(-c2nc3cnc(N4CCN(C)CC4)nc3n(Cc3cccc(OC)c3)c2=O)cc1 | – | inactive: 3.63%
Cc1cc(-c2ccccc2)n2nc(-c3ccccc3)cc2n1 | inconclusive: 39.8 µM [activator, single point] | –
COCCN1Cc2cccc(C(=O)Nc3cccc(OC)c3)c2C1=O | – | inactive: 3.64%
Cc1cc([P+](=O)O)c(C)n1-c1ccc(Br)cc1 | active: 20 µM | –
CN1/C(=C\C(=S)NC(=O)c2ccc([N+](=O)[O-])cc2)C(C)(C)c2ccccc21 | inconclusive: 39.8 µM [inhibitor, single point] | –
Cc1ccc(Cn2nnc3c(=O)[nH]c(C4CCN(S(=O)(=O)c5ccc(C)cc5)CC4)nc32)cc1 | inconclusive: 31.6 µM [activator, single point] | –
Cc1ccc(C)c(Cn2c(C(=O)O)c(CNCc3cccs3)c3ccccc32)c1 | inconclusive: 12.6 µM [activator, partial curve] | –

Structure (SMILES) | Potency | max response, negative = inhibition
Cc1cccc(NC(=O)CSc2nnc(-c3ccco3)c(-c3ccco3)n2)c1C | active: 7.94 µM | –
O=C(Nc1cc(Sc2ccccn2)cc([N+](=O)[O-])c1)c1ccc(Cl)cc1 | active: 12.6 µM | –
Nc1c(C(=O)Nc2cccc(F)c2)c2ccccn2c1C(=O)c1ccccc1 | – | inactive: 0.752%
Nc1ncc(S(=O)(=O)Nc2ccc(F)cc2F)cn1 | – | inactive: -6.13%
O=C(Cn1nc(-c2ccc(N3CCOCC3)c([N+](=O)[O-])c2)c2ccccc2c1=O)N1CCCCC1 | inconclusive: 39.8 µM [activator, single point] | –
Cc1cccc2cc(CN(CCCO)C(=O)Nc3cccc(Cl)c3)c(=O)[nH]c12 | inconclusive: 31.6 µM [activator, single point] | –
COc1ccccc1-c1noc(-c2ccc(NC3CCCC3)c([N+](=O)[O-])c2)n1 | inconclusive: 39.8 µM [inhibitor, single point] | –
Cc1ccc(OCC(=O)N/N=C/c2cn(Cc3ccccc3)c3ccccc23)cc1 | inconclusive: 39.8 µM [inhibitor, single point] | –
Cc1ccccc1OCCn1cc(/C=C(\C#N)C(=O)NCc2ccco2)c2ccccc21 | – | inactive: -15.2%
O=c1cccc2n1CC1CC2CN(c2ncnc3c2cnn3-c2ccc(Cl)cc2)C1 (configuration not stated) | inconclusive: 25.1 µM [activator, single point] | –
CC(C)(C)NC(=O)NC(=O)COC(=O)CNC(=O)c1cccc(F)c1 | inconclusive: 31.6 µM [inhibitor, single point] | –
N=C1C(c2nc3ccccc3c(=O)[nH]2)=C(O)CN1c1ccccc1 | inconclusive: 31.6 µM [inhibitor, single point] | –
CC1CN(S(=O)(=O)c2cccc(C(=O)OCc3cc(=O)oc4cc(O)ccc34)c2)CC(C)O1 (configuration not stated) | inconclusive: 39.8 µM [activator, single point] | –
O=C(CSc1ncnc2c1oc1ccccc12)Nc1ccccc1F | inconclusive: 31.6 µM [inhibitor, single point] | –
CC(C)CNC(=O)CCCc1ccccc1 | – | inactive: -0.591%
Clc1ccc(/C=N/Nc2nnc(Cl)c3ccccc23)cc1 | active: 25.1 µM | –
Cc1cc(=O)n(Cc2ccccc2)c2c1c(C)nn2C | inconclusive: 39.8 µM [activator, single point] | –
O=C(CCNC(=O)c1ccccc1Cl)Nc1nc(-c2ccccc2Cl)cs1 | inconclusive: 39.8 µM [inhibitor, single point] | –
CCCCCn1c(CN2CCN(c3ccc(OC)cc3)CC2)nc2c1c(=O)[nH]c(=O)n2C | inconclusive: 31.6 µM [activator, single point] | –
CCOc1ccc(-c2cc3nc(C4CCN(C(=O)OC(C)(C)C)CC4)c(C(=O)Nc4cc(OC)ccc4OC)cn3n2)cc1 | inconclusive: 39.8 µM [inhibitor, single point] | –
Cc1nn(C)c2c1c(-c1ccccc1)cc(=O)n2CC(=O)NC(C)c1ccccc1 (configuration not stated) | – | inactive: -12.4%
